In the supplement of paper PMC4967469:

Experiments:
Test in all cases: Viability of human cancer cell lines after 72 h of drug (GDSC screen)
[1] = compound: CCn1c(-c2nonc2N)nc2c(C#CC(C)(C)O)ncc(OC[C@H]3CCCNC3)c21 [GSK690693]; conditions: top dose 10.24 µM; top dose inferred
Method: (§1)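 Human cancer cell lines in 384-well plates, medium with 10% serum, drug for 72 h over a 256-fold dose range (nine 2-fold or five 4-fold steps up to the top dose). Adherent lines were fixed and stained with the nucleic acid dye Syto60, suspension lines read with resazurin; signal relative to control wells, capped at 0 and 100%. One two-parameter sigmoid per drug and line, fitted in a mixed model over all curves with the slope shared within a line.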

[2] = compound: O=C(NCCCNc1nc(Nc2cccc(NC(=O)N3CCCC3)c2)ncc1I)c1cccs1 [BX-795]; conditions: top dose 5 µM; top dose inferred
Method: as §1

[3] = compound: Oc1cccc(-c2nc(N3CCOCC3)c3oc4ncccc4c3n2)c1 [PI-103]; conditions: top dose 10.24 µM
Method: as §1

[4] = compound: CC1=C(/C=C/C(C)=C/C=C/C(C)=C/C(=O)O)C(C)(C)CCC1 [Tretinoin]; conditions: top dose 10 µM; top dose inferred
Method: as §1

[5] = compound: COc1cc2c(NC3CCN(C(C)C)CC3)nc(C3CCCCC3)nc2cc1OCCCN1CCCC1 [UNC0638]
Method: as §1

[6] = compound: Cc1cccc(-c2[nH]c(C(C)(C)C)nc2-c2ccc3c(c2)OCO3)n1 [SB-505124]; conditions: top dose 10 µM; top dose inferred
Method: as §1

[7] = top dose 40 µM, screen: GDSC drug entry 245
[8] = top dose 20 µM, screen: GDSC drug entry 1236, top dose inferred

Row | Cell Line | AUC [1] | IC50 [1] | AUC [2] | IC50 [2] | AUC [3] | IC50 [3] | AUC [4] | IC50 [4] | AUC [5, 7] | IC50 [5, 7] | AUC [5, 8] | IC50 [5, 8] | AUC [6] | IC50 [6]
1 | NCI-H647 (non-small cell lung carcinoma, adherent) | 0.956 | > 10.2 µM | 0.801 | 2.58 µM | 0.359 | 0.256 µM | 0.97 | > 10 µM | 0.738 | 12.5 µM | – | – | – | –
2 | NCI-H835 (lung carcinoid, suspension) | – | – | 0.939 | > 5 µM | – | – | 0.987 | > 10 µM | – | – | 0.836 | 12.3 µM | 0.99 | > 10 µM
3 | NCI-H1048 (small cell lung carcinoma, adherent) | 0.806 | 4.6 µM | 0.782 | 1.87 µM | – | – | 0.98 | > 10 µM | 0.942 | > 40 µM | 0.989 | > 20 µM | 0.98 | > 10 µM
4 | NCI-H1105 (small cell lung carcinoma, suspension) | – | – | 0.809 | 2.07 µM | – | – | 0.981 | > 10 µM | – | – | 0.941 | > 20 µM | 0.991 | > 10 µM
5 | NCI-H1341 (small cell lung carcinoma, suspension) | – | – | 0.909 | > 5 µM | – | – | 0.972 | > 10 µM | – | – | 0.918 | > 20 µM | 0.947 | > 10 µM
6 | NCI-H2052 (mesothelioma, adherent) | 0.963 | > 10.2 µM | 0.944 | > 5 µM | 0.913 | > 10.2 µM | 0.983 | > 10 µM | 0.846 | > 40 µM | – | – | – | –
7 | NCI-H3122 (lung adenocarcinoma, adherent) | 0.958 | > 10.2 µM | 0.909 | > 5 µM | 0.507 | 0.669 µM | 0.983 | > 10 µM | 0.76 | 14.5 µM | – | – | – | –
8 | NCI-N87 (stomach, adherent) | – | – | 0.964 | > 5 µM | – | – | 0.966 | > 10 µM | – | – | 0.869 | > 20 µM | 0.955 | > 10 µM
9 | OCI-LY7 (B-cell lymphoma, suspension) | – | – | 0.613 | 0.585 µM | – | – | 0.956 | > 10 µM | – | – | 0.855 | 9.38 µM | 0.993 | > 10 µM
10 | OCUM-1 (stomach, adherent) | 0.987 | > 10.2 µM | 0.874 | > 5 µM | 0.987 | > 10.2 µM | 0.987 | > 10 µM | 0.958 | > 40 µM | – | – | – | –
11 | PA-1 (ovary, adherent) | 0.799 | 3.72 µM | 0.748 | 1.31 µM | 0.192 | 0.104 µM | 0.953 | > 10 µM | 0.691 | 7.48 µM | – | – | – | –
12 | PWR-1E (prostate, adherent) | – | – | 0.811 | 2.63 µM | – | – | 0.948 | > 10 µM | – | – | 0.986 | > 20 µM | 0.986 | > 10 µM
13 | RCH-ACV (B-cell leukaemia, suspension) | – | – | 0.638 | 0.697 µM | – | – | 0.96 | > 10 µM | – | – | 0.825 | 9.25 µM | 0.98 | > 10 µM
14 | RH-18 (rhabdomyosarcoma, adherent) | – | – | 0.894 | > 5 µM | – | – | 0.939 | > 10 µM | – | – | 0.644 | 3.33 µM | 0.983 | > 10 µM
15 | RKN (ovary, adherent) | 0.944 | > 10.2 µM | 0.767 | 1.97 µM | – | – | 0.985 | > 10 µM | 0.738 | 12.5 µM | 0.808 | 11.1 µM | 0.85 | 8.24 µM
16 | RVH-421 (melanoma, adherent) | 0.939 | > 10.2 µM | 0.887 | > 5 µM | – | – | 0.973 | > 10 µM | 0.682 | 9.8 µM | 0.76 | 9.58 µM | 0.964 | > 10 µM
17 | SAT (head and neck, adherent) | 0.975 | > 10.2 µM | 0.807 | 4.55 µM | 0.817 | > 10.2 µM | 0.897 | > 10 µM | 0.779 | 26.9 µM | – | – | – | –
18 | SCC90 (head and neck, adherent) | – | – | 0.956 | > 5 µM | – | – | 0.981 | > 10 µM | – | – | 0.886 | > 20 µM | 0.978 | > 10 µM
19 | SK-GT-2 (stomach, adherent) | – | – | 0.86 | 4.56 µM | – | – | 0.984 | > 10 µM | – | – | 0.791 | 9.48 µM | 0.973 | > 10 µM
20 | SK-MEL-31 (melanoma, adherent) | – | – | 0.956 | > 5 µM | – | – | 0.983 | > 10 µM | – | – | 0.921 | > 20 µM | 0.983 | > 10 µM
21 | STS-0421 (soft tissue, adherent) | – | – | 0.811 | 3.23 µM | – | – | 0.936 | > 10 µM | – | – | 0.762 | 8.28 µM | 0.942 | > 10 µM
22 | SUP-B8 (B-cell leukaemia, suspension) | – | – | 0.805 | 2.5 µM | – | – | 0.968 | > 10 µM | – | – | 0.87 | 18.3 µM | 0.982 | > 10 µM
23 | T-T (oesophagus, adherent) | 0.987 | > 10.2 µM | 0.844 | 3.56 µM | – | – | 0.935 | > 10 µM | 0.748 | 12.8 µM | 0.985 | > 20 µM | 0.882 | > 10 µM
24 | TC-YIK (cervix, suspension) | – | – | 0.803 | 2.1 µM | – | – | 0.977 | > 10 µM | – | – | 0.703 | 4.25 µM | 0.733 | 2.58 µM
25 | TT (thyroid, adherent) | 0.983 | > 10.2 µM | 0.921 | > 5 µM | – | – | 0.965 | > 10 µM | 0.978 | > 40 µM | 0.893 | > 20 µM | 0.959 | > 10 µM
26 | U-266 (myeloma, semi-adherent) | – | – | 0.932 | > 5 µM | – | – | 0.701 | 2.83 µM | – | – | 0.805 | 14.7 µM | 0.969 | > 10 µM
27 | VMRC-LCD (lung adenocarcinoma, adherent) | – | – | 0.778 | 1.69 µM | – | – | 0.99 | > 10 µM | – | – | 0.873 | 14 µM | 0.992 | > 10 µM
28 | ZR-75-30 (breast, adherent) | – | – | 0.983 | > 5 µM | – | – | 0.977 | > 10 µM | – | – | 0.889 | > 20 µM | 0.981 | > 10 µM

A lower IC50 marks a more sensitive line; fits outside the tested doses are given as limits. For AUC the same curve is integrated over the 256-fold range of doses and scaled to a fraction; it is 1 without any effect and falls as sensitivity rises. For some of these results: Where the top dose is marked as inferred, it is not printed in the source and was worked back from the curve model. For some of these results: Drugs with an entry number were screened twice under separate entries, and the two screens often disagree.
